According to PubChem BioAssay AID1768 (National Center for Advancing Translational Sciences (NCATS), 2009):
The whole screen tested about 270,000 compounds, of which about 620 (0.23%) were called active. Inconclusive means that the source gave no clear call. Such entries were picked first, then a sample of the others. Calls follow the shape of the dose curve; as a rule, active = well fitted inhibition curve with a large enough effect in the polarisation, with a control signal flat (not every such curve was filed as active); inconclusive = small, poorly fitted or top-dose-only effect, or effect the other way, or a change in a side signal; inactive = no such curve, though single readings can be large or run the other way; the % refers to the polarisation. A potency beside an inconclusive call is a rough fit, not a confirmed value. A note “side channel” means that the fit belongs to a control or component signal, not to the main read-out.

Target: Menin (Homo sapiens) (UniProt O00255)
Experiment: qHTS Assay for Inhibitors Targeting the Menin-MLL Interaction in MLL Related Leukemias: Competition With Texas Red Labeled MLL-derived Mutant Peptide; as to FP activity change, negative = inhibition: % of control where 0% means no effect
Settings: fluorescence polarization; FP activity change, negative = inhibition: at 61.6 µM (top of the series)
Potency is read from the fitted curve at half-maximal effect; tags tell the direction and shape of the fitted curve or compound fluorescence and quenching.

Chain of UniProt O00255 (O00255 whole entry, looked up): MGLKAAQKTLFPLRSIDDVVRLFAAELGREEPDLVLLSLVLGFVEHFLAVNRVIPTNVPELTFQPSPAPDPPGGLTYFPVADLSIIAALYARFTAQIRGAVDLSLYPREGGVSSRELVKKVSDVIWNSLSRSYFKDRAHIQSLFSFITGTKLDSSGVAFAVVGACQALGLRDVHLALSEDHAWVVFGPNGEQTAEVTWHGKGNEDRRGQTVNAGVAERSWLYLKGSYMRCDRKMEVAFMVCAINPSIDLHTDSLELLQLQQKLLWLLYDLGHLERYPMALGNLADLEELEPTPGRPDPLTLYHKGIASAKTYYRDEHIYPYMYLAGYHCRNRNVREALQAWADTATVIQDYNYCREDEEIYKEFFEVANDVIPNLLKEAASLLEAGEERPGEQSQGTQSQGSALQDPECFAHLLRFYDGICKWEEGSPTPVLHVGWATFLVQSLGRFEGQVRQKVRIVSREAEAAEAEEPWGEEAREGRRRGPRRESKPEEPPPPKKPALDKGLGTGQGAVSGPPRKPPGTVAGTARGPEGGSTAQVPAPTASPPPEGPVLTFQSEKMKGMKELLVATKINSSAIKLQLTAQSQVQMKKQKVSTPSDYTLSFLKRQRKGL

| SMILES | Potency | FP activity change, negative = inhibition |
| --- | --- | --- |
| CSC1=NSC2=NC(=O)/C(=C\c3coc4ccccc4c3=O)C(=N)N12 | inconclusive: 35.5 µM [quencher, side channel, single point] | – |
| CCOC(=O)/C(=N/Nc1ccc(Cl)cc1)S(=O)(=O)c1ccc(Cl)cc1 | inconclusive: 39.8 µM [fluorescent, side channel, single point] | – |
| CC1(C)N=C(N)N=C(N)N1c1ccc(Oc2ccc(Cl)cc2)c(Cl)c1 | inconclusive: 8.91 µM [fluorescent, side channel, full curve] | – |
| Cn1nnc2c(C(N)=O)ncn2c1=O | inconclusive: 10 µM [inhibitor, partial curve] | – |
| CC(C)(C)c1ccc(C(=O)NC2CCN(Cc3ccccc3)CC2)cc1 | inconclusive: 12.6 µM [fluorescent, side channel, partial curve] | – |
| CCC(Oc1ccccc1)C(=O)Nc1ncc([N+](=O)[O-])s1 (stereo not drawn) | inconclusive: 31.6 µM [quencher, side channel, single point] | – |
| COc1cccc(N=C2SC(C(=O)Nc3ccc(F)cc3)CC(=O)N2C)c1 (stereo not drawn) | inconclusive: 28.2 µM [quencher, side channel, single point] | – |
| COc1nc(N(C)C)nc(N(OC)S(=O)(=O)c2ccccc2Cl)n1 | inconclusive: 25.1 µM [fluorescent, side channel, single point] | – |
| N#Cc1cccc(-c2cn(S(=O)(=O)c3ccc(Cl)cc3)nc2N)c1 | inconclusive: 28.2 µM [quencher, side channel, partial curve] | – |
| COc1ccc(C(=O)NCCCn2cccn2)cc1OC1CCN(C(C)=O)CC1 | – | inactive: -0.693% |
| O=C(O)COc1ccc(C(=O)c2cccs2)c(Cl)c1Cl | inactive | – |
| COc1cccc(O)c1O | – | inactive: 4.74% |
| Cn1c(N)c(C(=O)COC(=O)CCOc2ccc(C(C)(C)C)cc2)c(=O)n(C)c1=O | inconclusive: 31.6 µM [fluorescent, side channel, single point] | – |
| Cc1ccc(NC(=O)CN2C(=O)NC(Cc3ccccc3)C2=O)c(Br)c1 (stereo not drawn) | inconclusive: 25.1 µM [fluorescent, side channel, single point] | – |
| O=c1[nH]c(=O)n(Cc2ccc(Oc3ccccc3)cc2)cc1Br | inconclusive: 39.8 µM [inhibitor, single point] | – |
| C=CCn1c(NS(=O)(=O)c2ccccc2)c(S(=O)(=O)c2ccc(C)cc2)c2nc3ccccc3nc21 | – | inactive: -28% |
| O=C(N/N=C/c1coc2ccccc2c1=O)c1cc(Br)c(O)c(Br)c1 | inconclusive: 15.8 µM [quencher, side channel, partial curve] | – |
| CCC(Sc1ccc(Cl)cc1)C(=O)Nc1nnc(-c2cccc([N+](=O)[O-])c2)s1 (stereo not drawn) | inconclusive: 20 µM [quencher, side channel, single point] | – |
| CC1=NOC(=O)/C1=C\c1ccc(-c2ccccc2Br)o1 | inconclusive: 12.6 µM [quencher, side channel, partial curve] | – |
| CCOC(=O)c1ccc(NC(=O)CCc2nc(-c3ccccc3Cl)no2)cc1 | inconclusive: 39.8 µM [quencher, side channel, single point] | – |

| SMILES | Potency | FP activity change, negative = inhibition |
| --- | --- | --- |
| Cc1cnc(C(=O)Nc2ccccc2-n2cccc2)cn1 | inconclusive: 39.8 µM [inhibitor, single point] | – |
| c1ccc(CN2CCCC3(CCCN(Cc4nc(COc5ccccc5)no4)C3)C2)cc1 (stereo not drawn) | inconclusive: 10 µM [fluorescent, side channel, full curve, poor fit] | – |
| Cc1cccc(C)c1NC(=O)CSc1nc(C)c(CC(=O)c2ccc(Br)cc2)c(C)c1C#N | – | inactive: -23.5% |
| CC(=O)Nc1cc2c(cc1C(=O)C(C)C)OCCO2 | inconclusive: 39.8 µM [quencher, side channel, single point] | – |
| O=C(/C=C/c1ccc(Cl)c([N+](=O)[O-])c1)Nc1ccc(N2CCCC2)c(Cl)c1 | inconclusive: 10 µM [quencher, side channel, partial curve] | – |
| CSc1nc(-c2ccccc2)nc(N)c1C(C)=O | – | inactive: -9.95% |
| Cc1ccc(NC(=O)Cn2nc([N+](=O)[O-])c(Br)c2C)cc1C | inconclusive: 11.2 µM [quencher, side channel, partial curve] | – |
| O=C(CN1CCN(c2ccccc2O)CC1)NC(=O)NC1CCCC1 | – | inactive: -11.9% |
| COc1ccccc1OCCn1cc(C=O)c2ccccc21 | – | inactive: -7.55% |
| O=c1c(-c2cc(F)cc(F)c2)nc2cnc(N3CCOCC3)nc2n1C1CC1 | inconclusive: 39.8 µM [fluorescent, side channel, single point] | – |
| O=C(CSc1nnc(-c2cccs2)n1-c1ccccc1)Nc1ccccc1 | inconclusive: 39.8 µM [fluorescent, side channel, single point] | – |
| O=C(c1nc2ccc(Cl)cn2c1CN1CCCC(CO)C1)N1CCc2ccccc2C1 (stereo not drawn) | inconclusive: 7.94 µM [inhibitor, full curve, poor fit] | – |
| COc1c(/C=C2\SC(=Nc3ccccc3Cl)NC2=O)cccc1[N+](=O)[O-] | inconclusive: 22.4 µM [quencher, side channel, partial curve] | – |
| Cc1ccc(-c2ccc(=O)n(CC(=O)N3CCN(c4cccc(C)c4)C(C)C3)n2)cc1 (stereo not drawn) | inconclusive: 0.891 µM [fluorescent, side channel, full curve] | – |
| COC(=O)CN(C(=S)Nc1ccc(Cl)cc1)C1CC(=O)N(c2ccc(OC)cc2)C1=O (stereo not drawn) | inconclusive: 14.1 µM [quencher, side channel, partial curve] | – |
| NS(=O)(=O)c1ccc2nc(NC(=O)c3ccncc3)sc2c1 | inconclusive: 10 µM [inhibitor, partial curve] | – |
| Cc1nn(Cc2ccc(F)cc2)c2sc(C(=O)Nc3nccs3)cc12 | inconclusive: 3.98 µM [quencher, side channel, partial curve] | – |
| CCC(=O)OCCNc1cc(Sc2nccn2C)c2nonc2c1[N+](=O)[O-] | inconclusive: 17.8 µM [quencher, side channel, single point] | – |
| Cc1cccc(C(=O)Nc2ccc(C(=O)N/N=C/c3ccc4c(c3)OCO4)cc2)c1 | inconclusive: 39.8 µM [fluorescent, single point] | – |
| O=C1CC(SC(=NCc2ccc3c(c2)OCO3)Nc2ccccc2)C(=O)N1c1ccccc1 (stereo not drawn) | inconclusive: 39.8 µM [inhibitor, single point] | – |

| SMILES | Potency | FP activity change, negative = inhibition |
| --- | --- | --- |
| Cc1ccc(C(=O)N2c3ccccc3N(Cc3ccccc3)C(=O)C2(C)C)cc1 | inconclusive: 2.82 µM [fluorescent, side channel, full curve] | – |
| CCn1c(-c2ccc(F)cc2)n[nH]c1=S | inconclusive: 11.2 µM [inhibitor, partial curve] | – |
| Cc1cccc(-n2nnnc2SCC(=O)c2cc(C)n(Cc3ccco3)c2C)c1 | inconclusive: 39.8 µM [quencher, side channel, single point] | – |
| Cc1[nH][nH]c(=O)c1C(c1ccc(-c2ccc(Cl)c(Cl)c2)o1)c1c(C)[nH][nH]c1=O | inconclusive: 20 µM [quencher, side channel, single point] | – |
| CCOc1ccc(NC(=O)COC(=O)c2cccnc2)cc1 | inconclusive: 31.6 µM [quencher, side channel, single point] | – |
| CCc1cccc(NC(=O)CCCCCC2NC(=O)NC2C)c1 (stereo not drawn) | – | inactive: -8.94% |
| CCn1c(C)[n+](CCCS(=O)(=O)[O-])c2cc(Cl)c(Cl)cc21 | – | inactive: 15.7% |
| CNC(=O)c1ccsc1NC(=O)c1ccc2c(c1)CCCC2 | inconclusive: 28.2 µM [quencher, side channel, single point] | – |
| CC(=O)Nc1ccc(S(=O)(=O)N2CCN(CCCOc3ccccc3Cl)CC2)cc1 | inconclusive: 15.8 µM [quencher, side channel, partial curve] | – |
| CC(C)(C)C(=O)N(CCN(C(=O)C(C)(C)C)c1ccccc1)c1ccccc1 | inconclusive: 11.2 µM [fluorescent, side channel, partial curve] | – |
| c1ccc(Nc2nc(-c3ccc4c(c3)OCO4)nc3ccccc23)cc1 | inconclusive: 4.47 µM [quencher, side channel, full curve] | – |
| Cc1cc2cc(CNC(=O)Cc3ccc([N+](=O)[O-])cc3)ccc2n1C | inconclusive: 35.5 µM [fluorescent, single point] | – |
| O=C(CSc1ccc(-c2ccco2)nn1)c1cccc([N+](=O)[O-])c1 | inconclusive: 22.4 µM [quencher, side channel, partial curve] | – |
| Cc1[nH]c2ccccc2c1/C=N/Nc1ccccn1 | inconclusive: 17.8 µM [quencher, side channel, partial curve] | – |
| O=C(CCN1C(=O)S/C(=C\c2ccccc2)C1=O)Nc1ccc(S(=O)(=O)Nc2nccs2)cc1 | inconclusive: 12.6 µM [quencher, side channel, partial curve] | – |
| Cc1ccc(-c2noc(CSc3nnc(-c4ccncc4)n3-c3ccc(F)cc3)n2)cc1 | inconclusive: 17.8 µM [fluorescent, side channel, partial curve] | – |
| COc1cc(NS(=O)(=O)c2ccc(Nc3nc(-c4cccc([N+](=O)[O-])c4)cs3)cc2)nc(OC)n1 | inconclusive: 17.8 µM [quencher, side channel, partial curve] | – |
| Cc1cc(C)cc(C(=O)Nc2ccc(NC(=O)Cc3ccccc3)cc2)c1 | inconclusive: 39.8 µM [fluorescent, side channel, single point] | – |
